Source: paper PMC6919601, “Identification of Plasmodium dipeptidyl aminopeptidase allosteric inhibitors by high throughput screening” (PLoS ONE, 2019)
Out of some 110,000 compounds screened, about 230 (0.21%) showed an effect of 50% or more. The list shows a part of the results.

target: DPAP1 (Plasmodium falciparum, UniProt Q8IIJ9); test: primary screen, percent inhibition; read by cleavage of a fluorogenic dipeptide substrate; higher = more effect of the substance; design: species or system P. falciparum D10 trophozoite lysates; single well
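Also: 30 min substrate incubation versus DMSO and 10 µM JCP410 controls.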

Chain of DPAP1 (Q8IIJ9 whole entry, looked up): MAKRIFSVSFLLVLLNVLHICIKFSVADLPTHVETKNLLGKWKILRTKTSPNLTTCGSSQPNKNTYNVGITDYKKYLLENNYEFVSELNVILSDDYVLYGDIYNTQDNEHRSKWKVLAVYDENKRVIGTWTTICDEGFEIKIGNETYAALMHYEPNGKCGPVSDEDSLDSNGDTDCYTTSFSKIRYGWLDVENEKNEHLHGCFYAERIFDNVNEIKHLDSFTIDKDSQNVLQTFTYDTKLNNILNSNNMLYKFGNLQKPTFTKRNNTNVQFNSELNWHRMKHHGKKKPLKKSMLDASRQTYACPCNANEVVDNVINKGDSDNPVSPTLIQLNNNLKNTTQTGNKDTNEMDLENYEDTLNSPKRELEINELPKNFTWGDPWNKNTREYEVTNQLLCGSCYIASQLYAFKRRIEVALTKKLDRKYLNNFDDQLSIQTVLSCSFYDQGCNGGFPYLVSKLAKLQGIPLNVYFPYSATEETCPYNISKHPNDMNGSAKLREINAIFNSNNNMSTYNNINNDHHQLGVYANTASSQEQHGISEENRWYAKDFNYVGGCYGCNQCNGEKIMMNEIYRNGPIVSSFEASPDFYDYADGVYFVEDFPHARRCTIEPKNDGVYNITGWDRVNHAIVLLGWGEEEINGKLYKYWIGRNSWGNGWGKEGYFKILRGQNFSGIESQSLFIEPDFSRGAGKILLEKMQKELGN

Compound | % Inhibition @ 10 uM [%]
COc1ccc(-c2c(C#N)c(N)nc(OC)c2C#N)cc1 | -3.65
O=C(NC1CCCCC1)c1ccc(-n2cccc2)cc1 | 2.8
CCC1=NN(C(=O)COc2cc(C)cc(C)c2)C(O)(C(F)(F)F)C1 (stereo not drawn) | 0.472
CC(Oc1ccc(Cl)cc1Cl)C(=O)NC1CCCC1 (stereo not drawn) | -4.13
CC1(C)CC(=O)C2=C(C1)N(CCN1CCOCC1)C1=C(C(=O)CC(C)(C)C1)C2c1ccc(Cl)cc1 | 1.08
O=C(Cn1nnc(-c2ccccc2F)n1)NCCc1ccccc1 | -8.85
CCCCNC(=O)c1cnn2c1NC(c1ccc(Br)cc1)CC2C(F)(F)F (stereo not drawn) | -4.39
C=CCn1c(=N)c(C(=O)NCCc2ccccc2)cc2c(=O)n3ccccc3nc21 | 3.6
CC(C)CCNc1cnn(C23CC4CC(CC(C4)C2C(=O)O)C3)c(=O)c1Cl (stereo not drawn) | 4.33
O=C1CC(C(=O)Nc2ccccc2)NC(N2CCOCC2)=N1 (stereo not drawn) | -2.65
O=C(c1cccnc1Cl)N(Cc1ccccc1)Cc1ccccc1 | 0.64
O=[N+]([O-])c1ccc(-n2c3ccccc3c3ccccc32)cc1 | 0.00178
O=C(NC1CCCC1)c1nc(-c2ccc(Cl)cc2)n2c1CCCCC2 | 6.56
Cc1ccc(-c2c(C#N)cnc3ncnn23)cc1 | -2.56
CCC1(CC)Cc2ccccc2C2=C(C(=O)N3CCCCC3)C(=O)C(=O)N21 | -11
COc1ccccc1-c1cc(C(=O)NCCCn2ccnc2)no1 | 1.37
COc1ccc(NC(=O)c2ccc(OC(F)F)cc2)cc1OC | -1.63
Cc1ccc(S(=O)(=O)c2nnn3c2nc(N2CCC4(CC2)OCCO4)c2ccccc23)cc1 | -1.07
CCC1CCC(N2CCN(CCOCCO)CC2)CC1 (stereo not drawn) | -5.31
c1ccc(CSc2nc3ccccc3s2)nc1 | 3.05
CC(C)COc1ccc2c(c1)c1c3c(nccn32)CCC1 | 4.54
CC1CCC(C(C)C)C(OCC(O)CN2CCCCC2)C1 (stereo not drawn) | -2.44
CCCCCO/C(O)=C1/C(C)=NC2=C(C(=O)CC(C)(C)C2)C1c1ccccc1 (stereo not drawn) | 25.5
COc1cc(OC)cc(C(=O)Nc2ccc(OC)c(OC)c2)c1 | 0.215
Cc1cc(O)n2nc(NC(=O)C3CC3)nc2n1 | -5.15
CC(C)C[C@H](NC(=O)N1CCOCC1)C(=O)N[C@H](/C=C/S(=O)(=O)c1ccccc1)CCc1ccc(O)cc1 | -5.2

Compound | % Inhibition @ 10 uM [%]
CN1CCCN(Cc2cccnc2)CC1 | -0.828
COc1ccc(CCN2C(=O)c3[nH]nc(-c4ccccc4O)c3C2c2cccc(O)c2)cc1 (stereo not drawn) | -3.12
COc1ccc(NC(=O)c2ccc(N(C)S(=O)(=O)c3ccccc3)cc2)cc1Cl | -4.43
CCOc1ccc(C(=O)Nc2ccc(C(C)=O)cc2)cc1Br | 4.44
CC(Oc1ccc(Cl)cc1Cl)C(=O)N1CCN(Cc2ccc3c(c2)OCO3)CC1 (stereo not drawn) | 3.67
COC(=O)c1sccc1S(=O)(=O)N1CCN(c2ccccn2)CC1 | -6.9
O=C(Nc1ccc2oc(-c3cccc(F)c3)nc2c1)c1ccc(F)cc1 | -2.19
COc1cc(C2(c3ccc(O)c(OC)c3)C(=O)Nc3c(C)cc(Br)cc32)ccc1O | 4.49
CC1CCCC(C)N1C(=O)CCCOc1ccc(Cl)cc1Cl (stereo not drawn) | -0.261
CN(CC(=O)Nc1ccccc1)S(=O)(=O)c1ccccc1 | 0.755
CCc1ccccc1NC(=O)c1ccc(CN2CCOCC2)cc1 | 1.72
Cc1cc(NC(=O)CSc2c3c(nc4ccccc24)CCC3)no1 | -11
COc1cc(OC)c(OC)cc1CN1CC(C)OC(C)C1 (stereo not drawn) | 0.815
COc1ccc(C2Sc3cc(OC)ccc3NC(=O)C2O)cc1 (stereo not drawn) | -1.51
CC(=O)Nc1ccc(S(=O)(=O)N2c3ccccc3C(C)=CC2(C)C)cc1 | 2.01
Cc1ccc(CNC(=O)c2ccccc2F)cc1 | 1.38
Cc1ccc2[nH]c(NC(=O)CC34CC5CC(CC(C5)C3)C4)nc2c1 | 5.79
CCOC(=O)N1CCN(C(=O)CN(c2ccccc2Cl)S(=O)(=O)c2ccc(C)cc2)CC1 | 2.79
COc1cc(C(=O)NCc2nc3ccccc3n2Cc2c(F)cccc2Cl)cc(OC)c1OC | -5.67
Cc1cccc(CC(=O)NCCn2c(C)cc3ccccc32)c1 | -10.3
CCOC(=O)c1cnn2c1NC(c1cccc(OC)c1)CC2C(F)(F)F (stereo not drawn) | 0.564
Cc1ccn2c(NC(=O)c3ccccc3F)c(-c3ccccc3)nc2c1 | 1.5
Cc1cccc(OCc2nc(-c3ccncc3)no2)c1C | 3.93
Cc1ccc(S(=O)(=O)Nc2ccc(NC(=O)C(C)C)cc2)cc1 | -3.04
Cc1c(CNCCCOC(C)C)c(C(=O)O)c(C)n1Cc1ccc(F)cc1 | -3.67
